The GPR68 mutational scans of Howard et al. (2025)

B1: GPR68, Q15743 (parent)
chain: MGNITADNSSMSCTIDHTIHQTLAPVVYVTVLVVGFPANCLSLYFGYLQIKARNELGVYLCNLTVADLFYICSLPFWLQYVLQHDNWSHGDLSCQVCGILLYENIYISVGFLCCISVDRYLAVAHPFRFHQFRTLKAAVGVSVVIWAKELLTSIYFLMHEEVIEDENQHRVCFEHYPIQAWQRAINYYRFLVGFLFPICLLLASYQGILRAVRRSHGTQKSRKDQIQRLVLSTVVIFLACFLPYHVLLLVRSVWEASCDFAKGVFNAYHFSLLLTSFNCVADPVLYCFVSETTHRDLARLRGACLAFLTCSRTGRAREAYPLGAPEASGKSGAQGEEPELLTKLHPAFQTPNSPGSGGFPTGRLA

Legend:
[1] = variants of: B1; test: cAMP reporter score (Enrich2 score, wild type = 0); higher = more signal; HEK293T, FACS bins
[2] = variants of: B1; test: surface expression score (Enrich2 score, wild type = 0); higher = more signal; HEK293T, FACS bins

| Variant | cAMP reporter score ([1]; pH 5.5) | cAMP reporter score ([1]; pH 6.5, modulator: ogerin) | surface expression score [2] | cAMP reporter score ([1]; pH 6, modulator: ogerin) | cAMP reporter score ([1]; pH 6) |
| --- | --- | --- | --- | --- | --- |
| MGNITADNSSMSCTIDHTIHQTLAPVVYVTVLVVGFPANCLSLYFGYLQIKARNELGVYLCNLTVADLFYICSLPFWLQYVLQHDNWSHGDLSCQVCGILLYENIYISVGFLCCISVDRYLAVAHPFRFHQFRTLKAAVGVSVVIWAKELLTSIYFLMHEEVIEDENQHRVCFEHYPIQAWQRAINYYRFLVGFLFPICLLLAKYQGILRAVRRSHGTQKSRKDQIQRLVLSTVVIFLACFLPYHVLLLVRSVWEASCDFAKGVFNAYHFSLLLTSFNCVADPVLYCFVSETTHRDLARLRGACLAFLTCSRTGRAREAYPLGAPEASGKSGAQGEEPELLTKLHPAFQTPNSPGSGGFPTGRLA [S204K] | -0.236 | -2.3 | -0.529 | – | – |
| MGNITADNSSMSCTIDHTIHQTLAPVVYVTVLVVGFPANCLSLYFGYLQIKARNELGVYLCNLTVADLFYICSLPFWLQYVLQHDNWSHGDLSCQVCGILLYENIYISVGFLCCISVDRYLAVAHPFRFHQFRTLKAAVGVSVVIWAKELLTSIYFLMHEEVIEDENQHRVCFEHYPIQAWQRAINYYRFLVGFLFPICLLLAIYQGILRAVRRSHGTQKSRKDQIQRLVLSTVVIFLACFLPYHVLLLVRSVWEASCDFAKGVFNAYHFSLLLTSFNCVADPVLYCFVSETTHRDLARLRGACLAFLTCSRTGRAREAYPLGAPEASGKSGAQGEEPELLTKLHPAFQTPNSPGSGGFPTGRLA [S204I] | -0.432 | – | -0.38 | -0.671 | – |
| MGNITADNSSMSCTIDHTIHQTLAPVVYVTVLVVGFPANCLSLYFGYLQIKARNELGVYLCNLTVADLFYICSLPFWLQYVLQHDNWSHGDLSCQVCGILLYENIYISVGFLCCISVDRYLAVAHPFRFHQFRTLKAAVGVSVVIWAKELLTSIYFLMHEEVIEDENQHRVCFEHYPIQAWQRAINYYRFLVGFLFPICLLLALYQGILRAVRRSHGTQKSRKDQIQRLVLSTVVIFLACFLPYHVLLLVRSVWEASCDFAKGVFNAYHFSLLLTSFNCVADPVLYCFVSETTHRDLARLRGACLAFLTCSRTGRAREAYPLGAPEASGKSGAQGEEPELLTKLHPAFQTPNSPGSGGFPTGRLA [S204L] | 0.34 | – | -0.491 | -0.498 | -0.946 |

Scores with a large standard error are left out. The source holds two more conditions with little spread; they are left out. Read del as a deletion of the residues named and ins as an insertion between two positions. For some of these results: The data file names ogerin without a concentration.
